Out of some 310,000 compounds screened, about 14,000 (4.5%) showed an effect of 50% or more. Effects have a minus sign here. The list shows a part of the results.
Target: human ether-à-go-go-related gene (hERG) potassium channel (human, UniProt Q12809)
Assay: primary screen, population patch clamp on CHO cells stably expressing hERG
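Further: peak tail current of the secondary pulse compared with the same well before compound.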

Sequence of human ether-à-go-go-related gene (hERG) potassium channel (Q12809 whole entry, looked up): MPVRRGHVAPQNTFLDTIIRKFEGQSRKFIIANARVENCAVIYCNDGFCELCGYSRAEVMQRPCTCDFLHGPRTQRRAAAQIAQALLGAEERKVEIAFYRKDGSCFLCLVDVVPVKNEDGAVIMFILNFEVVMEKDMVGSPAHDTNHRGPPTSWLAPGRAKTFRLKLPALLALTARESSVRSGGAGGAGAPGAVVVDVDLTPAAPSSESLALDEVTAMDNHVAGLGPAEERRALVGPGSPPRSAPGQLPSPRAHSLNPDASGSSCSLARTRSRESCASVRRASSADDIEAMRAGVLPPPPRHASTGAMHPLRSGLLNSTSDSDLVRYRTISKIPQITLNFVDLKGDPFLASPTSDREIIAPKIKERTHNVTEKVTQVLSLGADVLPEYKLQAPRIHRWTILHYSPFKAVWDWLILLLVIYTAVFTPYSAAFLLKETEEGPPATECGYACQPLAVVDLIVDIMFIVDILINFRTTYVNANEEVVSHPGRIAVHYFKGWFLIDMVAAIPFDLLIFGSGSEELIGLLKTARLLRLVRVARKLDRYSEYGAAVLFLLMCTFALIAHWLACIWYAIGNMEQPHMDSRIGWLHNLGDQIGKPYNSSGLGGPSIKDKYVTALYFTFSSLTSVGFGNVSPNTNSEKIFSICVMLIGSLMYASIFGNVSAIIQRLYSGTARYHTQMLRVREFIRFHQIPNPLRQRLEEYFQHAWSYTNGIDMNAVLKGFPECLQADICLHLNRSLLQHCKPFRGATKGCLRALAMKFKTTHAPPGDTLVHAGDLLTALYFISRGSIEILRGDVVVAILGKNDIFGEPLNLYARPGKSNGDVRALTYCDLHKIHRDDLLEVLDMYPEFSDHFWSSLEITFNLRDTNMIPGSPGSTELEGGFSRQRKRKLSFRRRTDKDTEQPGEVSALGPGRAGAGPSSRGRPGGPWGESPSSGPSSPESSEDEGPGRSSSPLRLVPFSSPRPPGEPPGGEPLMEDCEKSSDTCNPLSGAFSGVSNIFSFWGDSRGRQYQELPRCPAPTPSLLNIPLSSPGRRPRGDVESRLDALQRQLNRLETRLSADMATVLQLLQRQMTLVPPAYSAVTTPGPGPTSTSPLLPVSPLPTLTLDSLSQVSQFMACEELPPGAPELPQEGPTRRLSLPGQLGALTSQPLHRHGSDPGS

Structure (SMILES) | hERG current change (%, negative = inhibition) at 10uM
Clc1cc(NCc2cccs2)ccc1N1CCOCC1 | 3.84%
Cc1ccc(NC(=O)Nc2cccc(C(F)(F)F)c2)nc1 | 22.8%
Cc1ccc(NC(=O)c2c(C)nc(Nc3nc4ccccc4o3)nc2C)cc1 | 9.04%
COC(=O)c1ccccc1OCCCN(C)C.O=C(O)C(=O)O | -17.4%
Cc1ccccc1OCC(=O)Nc1ccccc1NC(=O)c1ccco1 | -7.72%
Cc1cccc(/C(N)=N/OC(=O)N2c3ccccc3Sc3ccccc32)c1 | -1.7%
CC(=O)c1ccc(NC(=O)C(C)OC(=O)CCCN=C2NS(=O)(=O)c3ccccc32)cc1 (centres unmarked) | 13.6%
Cc1ccccc1-n1nc2c(c1NC(=O)C1CCCC1)CS(=O)(=O)C2 | 3.73%
COc1ccc2ccccc2c1C(O)c1nccn1C (centres unmarked) | -31.9%
Nn1c(SCC(=O)N2CCCc3ccccc32)nnc1-c1ccc(Cl)cc1 | -3.32%
COc1ccc2c(CC(=O)NCc3cccs3)coc2c1 | 4.22%
O=C(NCCc1c[nH]c2ccccc12)OCCCCOC(=O)NCCc1c[nH]c2ccccc12 | 4.25%
O=C(CCC(=O)OCc1ccc(C(=O)Oc2ccc(Cl)cc2)cc1)Nc1ccccc1 | 15.5%
O=C(COC(=O)CNC(=O)c1ccc(Cl)cc1Cl)NNC(=O)c1ccccc1 | -4.3%
COc1ccc(S(=O)(=O)N2CCCC(C(=O)O)C2)cc1 (centres unmarked) | -0.188%
O=C(c1ccc(C(F)(F)F)cc1)N1CCCCC1 | 2.64%
O=P(O)(O)c1ccccc1OCCOCCOc1ccccc1P(=O)(O)O | 5.9%
C=CCn1c(O)c(C(CC)=Nc2cccc(C(F)(F)F)c2)c(=O)[nH]c1=O | -17%
CC(=O)Nc1ccc2c(c1)nc(C)n2Cc1ccccc1 | 10.1%
COc1ccc2nc(C)cc(SCC(=O)Nc3c(C)cc(C)cc3C)c2c1 | 4.77%
Cc1cccc(NC(=O)c2cc3ccccc3c(=O)o2)n1 | 20.8%
O=C(Cn1nnc2ccccc21)c1ccccc1 | -7.57%
COc1ccc2nc(N(CCN(C)C)C(=O)c3ccc(C(=O)c4ccccc4)cc3)sc2c1.Cl | -39.2%

Structure (SMILES) | hERG current change (%, negative = inhibition) at 10uM
Cc1cc(-c2ccccc2)nc(Oc2cccc(C(F)(F)F)c2)c1S(C)(=O)=O | 1.13%
CSc1ccccc1NC(=O)CSc1nnnn1-c1ccccc1SC | -8.55%
Cc1ccc(/C=C/c2ccc3cccc(O)c3n2)s1 | 25.6%
CC(C)CC(=O)Nc1cccc(-c2nc3ccccc3[nH]2)c1 | -16.5%
Cc1ccc(Oc2ccc(S(=O)(=O)Nc3ccc(C(=O)O)cc3)cc2)cc1 | 3.04%
COc1ccc(CCn2c(N)cc(=O)[nH]c2=O)cc1OC | 9.78%
Cc1csc(NC(=O)CCCNC(=O)c2ccc(Cl)cc2)n1 | -23.6%
O=C(CNC(=O)c1ccco1)OCC(=O)c1ccc2ccccc2c1 | -1.28%
Clc1cccc(Cl)c1C1Nc2cccc3cccc(c23)N1 | 6.69%
Cl.c1cc2n(c1)-c1c(ccc3c1OCO3)CNC2c1ccc2c(c1)OCO2 (centres unmarked) | -19.2%
Cc1ccc(C2=NN(C(=O)CNCCO)C(c3cccs3)C2)cc1 (centres unmarked) | -14.8%
N#C/C(=C\c1cccnc1)c1ccc(Br)cc1 | -5.44%
CCOC(=O)c1cc(CC)sc1/N=C/C1=C(O)CCCC1=O | -26.2%
COc1ccc(CCC(=O)Nc2cc3c4c(c2)CC(=O)N4CCC3)cc1 | -19.1%
Cc1nc(CCNC(=O)CC2C(=O)NCCN2CC(C)(C)C)nc2c1CCC2 (centres unmarked) | 2.61%
Cn1c(SCC(=O)NNC(=O)c2ccc(Cl)cc2)nnc1-c1cccnc1 | 17.2%
COC(=O)[C@@H](NC(=O)CCc1nnc(-c2ccsc2)o1)C(C)C | 3.86%
Cc1oc(-c2cccs2)nc1CN1CCC(c2ccccc2)CC1 | -66.5%
CC(=O)N[C@H]1[C@H]([C@H](O)[C@H](O)CO)OC(C(=O)O)=C[C@@H]1O | 3.96%
Cc1cc(NC(=O)C(C)SCC(=O)Nc2ccccc2OC(F)F)no1 (centres unmarked) | -6.62%
Cc1cc(C)cc(N(C(=O)CNC(=O)c2ccco2)C(C(=O)NC2CCCCC2)c2ccncc2)c1 (centres unmarked) | -10%
O=C1N=C(N2C=CC(=C3C=CNC=C3)C=C2)/C(=C/N=NC(=O)c2ccccc2O)S1 | 5.08%
COc1ccccc1-c1cnn2c(NCCc3ccccc3)cc(C)nc12 | 18.5%

Structure (SMILES) | hERG current change (%, negative = inhibition) at 10uM
Cc1noc(C)c1CSCC(=O)Oc1ccc(N(C)S(=O)(=O)c2ccccc2)cc1 | -3.47%
CCS(=O)(=O)n1nc(-c2ccc(OC)cc2)nc1N | 11.6%
COc1ccc(NC(=O)Cn2nc(C(F)(F)F)c3c2CCCC3)c(OC)c1 | 16.8%
Cc1nn2c(=S)[nH]nc2[nH]c1=O | 20.9%
CC(=O)CC(=O)C1C(=O)N(C)C(=O)N(C)C1=O | 17.5%
O=C(Nc1cc([N+](=O)[O-])ccc1N1CCOCC1)c1ccco1 | -25.6%
O=C1CCC(=O)N1CN(Cc1ccco1)CN1C(=O)CCC1=O | 8.44%
CC(C)(Oc1ccc(Cl)cc1)C(=O)NCCCn1ccnc1 | -21.2%
S=c1nc[nH]c2c1sc1nc(-c3ccccc3)c3c(c12)CCCC3 | 27.9%
CC(C)[C@H](NC(=O)N1CCn2c1nc1ccccc12)C(=O)N1CCCCC1 | 1.33%
COc1ccccc1Nc1c2ccccc2nc2ccccc12 | -71%
OCC1(Cc2ccc(F)cc2F)CCCN(CCCc2ccccc2)C1 (centres unmarked) | -82.9%
O=C(COc1ccc(Cl)cc1Cl)Nc1nc2n(n1)C(c1ccccc1)CC(=O)N2 (centres unmarked) | -4.02%
COc1cccc(C(=O)Nc2nnc(S(=O)(=O)N3CCCC3)s2)c1 | 12.6%
CC1=C(C(=O)OCCOC(C)C)C(c2cc3c(cc2Br)OCO3)C2=C(CCCC2=O)N1 (centres unmarked) | -20.2%
O=C(Nc1cccc(C(F)(F)F)c1)C1CCCCC1 | -5.61%
O=C1CSC(c2cn(-c3ccccc3)nc2-c2ccccc2)N1Cc1ccco1 (centres unmarked) | -19%
CCn1c(Cc2ccccc2)nnc1SCC(=O)Nc1ccc(S(N)(=O)=O)cc1 | 2.13%
COc1cccc(CN2CCN(CCc3ccccc3)C(CCO)C2)c1OC (centres unmarked) | -34.8%
O=C(CCCCCn1c(=O)[nH]c2ccsc2c1=O)NCc1ccc(F)cc1 | 2.96%
NNC(=O)CCN1CCN(Cc2ccccc2)CC1 | 17%
Cc1ccc(S(=O)(=O)N(Cc2cc3ccccc3[nH]c2=O)CC2CCCO2)cc1 (centres unmarked) | 10.5%
O=C(Nc1ccc2c(c1)OCO2)C1CC(c2ccc(Cl)cc2)=NO1 (centres unmarked) | 2.27%

Structure (SMILES) | hERG current change (%, negative = inhibition) at 10uM
O=C(CN1C(=O)C2CCCCC2C1=O)OCc1nnc(-c2ccccc2)o1 (centres unmarked) | 13.4%
CCOC(=O)C1CCCN(C(=O)CNC(=O)Cn2ccc3ccccc3c2=O)C1 (centres unmarked) | -11%
COc1ccccc1N/C(N)=N/c1nc(CSc2nc3ccccc3s2)cc(=O)[nH]1 | -1.08%
COC(=O)c1cnn(-c2cc(Oc3cccc(C)c3)ncn2)c1N | 1.04%
Cc1cc(Br)cc(Br)c1OCC(=O)NNC(=O)CCC(=O)NCc1ccccc1 | 18.1%
COc1ccccc1NS(=O)(=O)c1cc(N)ccc1N1CCCCC1 | -1.36%
CCN(CC)S(=O)(=O)c1cccc(-c2nnc(SCC(=O)c3cc(C)n(C)c3C)o2)c1 | -25.5%
Cc1ccc(/C=C/c2ccc(=O)n(Cc3ccccc3Cl)n2)cc1 | 18.6%
CCCc1cc(C(=O)Nc2ccn(Cc3ccc(C)cc3)n2)no1 | -6.47%
COc1ccc(/C=N/NC(=O)Nc2cccc3nsnc23)cc1OC | 4.47%
COc1ccccc1NC(=O)c1ccccc1S(=O)(=O)c1ccc([N+](=O)[O-])cc1 | -2.21%
CCCc1cc(=O)[nH]c(SCC(=O)N2CCCc3ccccc32)n1 | 0.491%
COc1cc(/C=N/Nc2ccc(F)cc2F)cc(OC)c1OC | -5.55%
N#CNC(=Nc1ccccc1F)SCc1ccc(C(=O)O)cc1 | 3.01%
C=CCOc1ccc(C2C(C(=O)c3ccco3)=C(O)C(=O)N2c2nnc(C)s2)cc1 (centres unmarked) | 20.7%
c1ccc2c(CSCCc3ccncc3)cccc2c1 | -17.6%
COCCN1Cc2cccc(C(=O)NC(C)CCc3ccco3)c2C1=O (centres unmarked) | -10.8%
CCc1c(C(=O)Nc2ncn(Cc3cccc(C)c3)n2)csc1C | -37.8%
CCC(C)c1ccc(NC(=O)COc2c(F)c(F)c(C(F)(F)F)c(F)c2F)cc1 (centres unmarked) | -57.4%
Cc1nn(C)c(C)c1CS(=O)(=O)c1ccccc1 | 7.61%

Source: publication PMC4336329 (PLoS ONE, 2015)
